Drawing on publication PMC5612953, “Stable MOB1 interaction with Hippo/MST is not essential for development and tissue growth control” (Nature Communications, 2017), this text covers binding for seven molecules.

Protein sequences, listed by entry. Tags and fused reporters are not part of them. Residues count along the entry.
UniProt Q9NBK5: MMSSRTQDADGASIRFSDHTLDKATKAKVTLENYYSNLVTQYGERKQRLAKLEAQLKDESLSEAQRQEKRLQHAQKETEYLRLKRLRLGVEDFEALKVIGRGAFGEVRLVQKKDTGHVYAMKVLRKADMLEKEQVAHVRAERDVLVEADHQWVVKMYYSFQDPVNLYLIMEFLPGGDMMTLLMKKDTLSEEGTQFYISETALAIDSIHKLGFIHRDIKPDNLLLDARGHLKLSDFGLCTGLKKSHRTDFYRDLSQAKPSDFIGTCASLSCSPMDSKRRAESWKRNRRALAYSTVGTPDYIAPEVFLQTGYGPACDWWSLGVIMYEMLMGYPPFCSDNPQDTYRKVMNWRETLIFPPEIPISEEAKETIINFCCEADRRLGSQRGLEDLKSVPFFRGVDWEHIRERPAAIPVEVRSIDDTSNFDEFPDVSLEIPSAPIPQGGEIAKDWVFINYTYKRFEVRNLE
UniProt Q9Y2H1, residues 25-88: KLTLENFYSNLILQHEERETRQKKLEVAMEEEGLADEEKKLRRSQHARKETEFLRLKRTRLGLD

For assay [1], the target named is fly HA-tagged Tricornered (Trc) (Drosophila) (UniProt Q9NBK5). Kind of assay: co-IP; Drosophila S2R+ cells co-expressing myc-MOB1A variants and HA-tagged Wts, Trc or Hpo; IP with anti-HA, blot anti-myc; low-stringency buffer.
Assay [2] deals with T1, fly HA-tagged Warts (Wts) (Drosophila) (UniProt Q9VA38).
T1 sequence: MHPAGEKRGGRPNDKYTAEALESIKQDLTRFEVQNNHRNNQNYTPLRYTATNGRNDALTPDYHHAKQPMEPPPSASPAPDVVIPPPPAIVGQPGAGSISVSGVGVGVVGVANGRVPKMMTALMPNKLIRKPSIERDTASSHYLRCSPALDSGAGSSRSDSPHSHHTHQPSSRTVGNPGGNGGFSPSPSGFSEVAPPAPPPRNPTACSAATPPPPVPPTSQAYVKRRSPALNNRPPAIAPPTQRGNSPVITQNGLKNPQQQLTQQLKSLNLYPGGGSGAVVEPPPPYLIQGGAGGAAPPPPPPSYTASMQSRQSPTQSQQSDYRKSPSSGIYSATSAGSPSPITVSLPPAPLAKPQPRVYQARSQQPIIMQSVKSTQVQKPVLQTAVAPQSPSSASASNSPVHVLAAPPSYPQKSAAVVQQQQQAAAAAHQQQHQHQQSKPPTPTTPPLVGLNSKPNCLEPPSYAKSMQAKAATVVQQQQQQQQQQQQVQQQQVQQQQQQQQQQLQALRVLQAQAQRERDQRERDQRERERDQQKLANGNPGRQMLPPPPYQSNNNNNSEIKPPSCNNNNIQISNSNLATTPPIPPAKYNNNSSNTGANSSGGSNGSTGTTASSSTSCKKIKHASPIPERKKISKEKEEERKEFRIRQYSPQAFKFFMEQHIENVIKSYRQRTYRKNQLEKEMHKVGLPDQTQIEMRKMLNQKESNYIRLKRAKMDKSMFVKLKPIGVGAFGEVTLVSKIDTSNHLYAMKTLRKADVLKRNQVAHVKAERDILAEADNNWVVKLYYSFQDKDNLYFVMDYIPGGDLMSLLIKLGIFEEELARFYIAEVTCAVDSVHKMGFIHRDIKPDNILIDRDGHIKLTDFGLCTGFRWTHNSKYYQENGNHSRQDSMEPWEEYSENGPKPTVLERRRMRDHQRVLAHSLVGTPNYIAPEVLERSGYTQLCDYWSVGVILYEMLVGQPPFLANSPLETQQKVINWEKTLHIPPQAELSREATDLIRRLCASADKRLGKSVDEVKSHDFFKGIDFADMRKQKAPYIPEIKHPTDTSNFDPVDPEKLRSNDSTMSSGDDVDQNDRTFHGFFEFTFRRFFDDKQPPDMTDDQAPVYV
The assay is described as above.

Assay [3] deals with T2, full-length HA-Hpo(wt) (Drosophila) (UniProt Q8T0S6).
T2 sequence: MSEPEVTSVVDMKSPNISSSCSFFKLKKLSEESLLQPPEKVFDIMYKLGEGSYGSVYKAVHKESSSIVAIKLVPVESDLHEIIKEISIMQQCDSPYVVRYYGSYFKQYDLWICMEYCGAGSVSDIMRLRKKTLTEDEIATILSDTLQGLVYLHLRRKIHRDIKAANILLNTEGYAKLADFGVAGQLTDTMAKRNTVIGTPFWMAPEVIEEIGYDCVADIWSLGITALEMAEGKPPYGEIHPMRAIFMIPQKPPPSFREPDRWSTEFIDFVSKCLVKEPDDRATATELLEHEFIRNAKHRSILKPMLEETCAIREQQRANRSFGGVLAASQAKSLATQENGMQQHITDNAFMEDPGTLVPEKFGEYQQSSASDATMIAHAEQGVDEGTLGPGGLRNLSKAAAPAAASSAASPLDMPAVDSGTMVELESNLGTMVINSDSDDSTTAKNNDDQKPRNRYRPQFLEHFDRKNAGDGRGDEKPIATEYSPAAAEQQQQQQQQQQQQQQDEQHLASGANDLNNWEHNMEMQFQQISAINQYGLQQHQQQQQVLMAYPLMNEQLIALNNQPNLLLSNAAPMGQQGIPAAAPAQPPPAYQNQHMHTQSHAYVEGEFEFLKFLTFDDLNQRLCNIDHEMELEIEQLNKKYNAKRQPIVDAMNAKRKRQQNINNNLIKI
Described as above.

The target of assay [4] is human NDR2 (residues 25-88), N-terminal regulatory domain (NTR) (human) (UniProt Q9Y2H1). As to the kind of experiment: ITC; 25 °C, ITC200; 25 mM HEPES pH 7.5, 200 mM NaCl, 1 mM EDTA; ~240 μM MOB1A injected (20 x 2 μl) into ~24 μM NDR1, NDR2, LATS1 or LATS2 fragment in the cell; single-site model; both purified. A general note: ITC needs no label: the signal is the heat of the interaction.

Assay [5] concerns the target T3, human MST2 (residues 2-392) (human) (UniProt Q13188).
T3 sequence: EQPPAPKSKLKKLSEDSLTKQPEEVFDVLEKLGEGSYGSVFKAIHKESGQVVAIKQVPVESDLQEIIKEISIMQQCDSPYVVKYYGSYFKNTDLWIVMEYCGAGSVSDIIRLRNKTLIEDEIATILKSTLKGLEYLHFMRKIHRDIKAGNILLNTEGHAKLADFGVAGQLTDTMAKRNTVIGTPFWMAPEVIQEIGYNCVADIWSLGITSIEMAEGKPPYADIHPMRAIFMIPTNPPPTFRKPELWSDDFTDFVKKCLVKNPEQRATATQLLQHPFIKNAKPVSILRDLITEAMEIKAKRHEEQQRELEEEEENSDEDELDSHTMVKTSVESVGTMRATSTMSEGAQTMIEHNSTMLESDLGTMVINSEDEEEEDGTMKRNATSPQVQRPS
As to the kind of experiment: SEC; purified full-length MOB1 proteins incubated with NDR2 (25-88), LATS1 (618-697) or MST2 (2-392) at 4 °C for 20 min in assembly buffer (20 mM Tris pH 8.0, 200 mM NaCl, 5 mM DTT); HiLoad 16/60 Superdex 200; fractions by SDS-PAGE and Coomassie; for LATS1 MOB1A was first phosphorylated by MST2 (2-308); both purified. A general note: Size exclusion chromatography separates by hydrodynamic size, large species first.

Results are given in words; binding and its absence hold for the method and conditions named. For some assays here: In cells and extracts the contact can be indirect. Some results given as binding are weak or reduced against the parent protein; the word gives no strength. For some assays here: Tags and fused reporters may be left off the sequences shown.

B1: myc-tagged full-length human MOB1A(D63V) (Drosophila S2R+ cells) (protein, UniProt Q9H8S9 1-216)
chain: MSFLFSSRSSKTFKPKKNIPEGSHQYELLKHAEATLGSGNLRQAVMLPEGEDLNEWIAVNTVVFFNQINMLYGTITEFCTEASCPVMSAGPRYEYHWADGTNIKKPIKCSAPKYIDYLMTWVQDQLDDETLFPSKIGVPFPKNFMSVAKTILKRLFRVYAHIYHQHFDSVMQLQEEAHLNTSFKHFIFFVQEFNLIDRRELAPLQELIEKLGSKDR
As to B1, the results for the binding result in assay [1], in assay [2] and in assay [3] were “binds”, “no binding” and “binds”, respectively.

B2: myc-tagged full-length human MOB1A(E51K) (Drosophila S2R+ cells) (protein, UniProt Q9H8S9 1-216)
chain: MSFLFSSRSSKTFKPKKNIPEGSHQYELLKHAEATLGSGNLRQAVMLPEGKDLNEWIAVNTVDFFNQINMLYGTITEFCTEASCPVMSAGPRYEYHWADGTNIKKPIKCSAPKYIDYLMTWVQDQLDDETLFPSKIGVPFPKNFMSVAKTILKRLFRVYAHIYHQHFDSVMQLQEEAHLNTSFKHFIFFVQEFNLIDRRELAPLQELIEKLGSKDR
In the case of B2, the binding result in assay [2] and in assay [3] was “binds” each time.

B3: myc-tagged full-length human MOB1A(K104E/K105E) (Drosophila S2R+ cells) (protein, UniProt Q9H8S9 1-216)
chain: MSFLFSSRSSKTFKPKKNIPEGSHQYELLKHAEATLGSGNLRQAVMLPEGEDLNEWIAVNTVDFFNQINMLYGTITEFCTEASCPVMSAGPRYEYHWADGTNIEEPIKCSAPKYIDYLMTWVQDQLDDETLFPSKIGVPFPKNFMSVAKTILKRLFRVYAHIYHQHFDSVMQLQEEAHLNTSFKHFIFFVQEFNLIDRRELAPLQELIEKLGSKDR
In the case of B3, the values for the binding entry in assay [1], in assay [2] and in assay [3] were “binds”, “binds” and “no binding”, respectively.

B4: MOB1(H185A) (protein, UniProt Q9H8S9 1-216)
chain: MSFLFSSRSSKTFKPKKNIPEGSHQYELLKHAEATLGSGNLRQAVMLPEGEDLNEWIAVNTVDFFNQINMLYGTITEFCTEASCPVMSAGPRYEYHWADGTNIKKPIKCSAPKYIDYLMTWVQDQLDDETLFPSKIGVPFPKNFMSVAKTILKRLFRVYAHIYHQHFDSVMQLQEEAHLNTSFKAFIFFVQEFNLIDRRELAPLQELIEKLGSKDR
In the case of B4, the binding result in assay [4] is reported as “no binding (tested: ~240 μM MOB1A injected into ~24 μM NDR2)”.

B5: myc-tagged full-length human MOB1A wild-type (Drosophila S2R+ cells) (protein, UniProt Q9H8S9 1-216)
chain: MSFLFSSRSSKTFKPKKNIPEGSHQYELLKHAEATLGSGNLRQAVMLPEGEDLNEWIAVNTVDFFNQINMLYGTITEFCTEASCPVMSAGPRYEYHWADGTNIKKPIKCSAPKYIDYLMTWVQDQLDDETLFPSKIGVPFPKNFMSVAKTILKRLFRVYAHIYHQHFDSVMQLQEEAHLNTSFKHFIFFVQEFNLIDRRELAPLQELIEKLGSKDR
Regarding B5, the binding entry in assay [1], in assay [2] and in assay [3] was “binds” each time.

B6: unphosphorylated full-length MOB1A(K104E/K105E), recombinant (protein, UniProt Q9H8S9 1-216)
chain: MSFLFSSRSSKTFKPKKNIPEGSHQYELLKHAEATLGSGNLRQAVMLPEGEDLNEWIAVNTVDFFNQINMLYGTITEFCTEASCPVMSAGPRYEYHWADGTNIEEPIKCSAPKYIDYLMTWVQDQLDDETLFPSKIGVPFPKNFMSVAKTILKRLFRVYAHIYHQHFDSVMQLQEEAHLNTSFKHFIFFVQEFNLIDRRELAPLQELIEKLGSKDR
In the case of B6, in assay [5], the binding entry was “no binding”.

B7: MOB1(Q67A) (protein, UniProt Q9H8S9 1-216)
chain: MSFLFSSRSSKTFKPKKNIPEGSHQYELLKHAEATLGSGNLRQAVMLPEGEDLNEWIAVNTVDFFNAINMLYGTITEFCTEASCPVMSAGPRYEYHWADGTNIKKPIKCSAPKYIDYLMTWVQDQLDDETLFPSKIGVPFPKNFMSVAKTILKRLFRVYAHIYHQHFDSVMQLQEEAHLNTSFKHFIFFVQEFNLIDRRELAPLQELIEKLGSKDR
For the molecule B7, the binding result in assay [4] is recorded as “no binding (tested: ~240 μM MOB1A injected into ~24 μM NDR2)”.
